Measured values: the supplement of paper PMC9174493
This is one part of the list. Single values of this set are uncertain. Values with irradiation are relative to irradiated vehicle.

What follows are compounds tested on A549-Dual (assay: ISRE reporter (Lucia luciferase) activity, viability-corrected, relative to vehicle (fold change vs vehicle); higher = more activation of STING-IRF / NF-kB immune response reporter). Conditions: 10 µM; irradiation: none.

Structure (SMILES) | ISRE reporter
CCOC(=O)C1=C(C)NC(C)=C(C(=O)OCC)C1c1ccccc1/C=C/C(=O)OC(C)(C)C [Lacidipine] | 0.79
C=C1C(=O)OC2/C=C(\C)CC/C=C(\C)CCC12 (stereo not given) [Costunolide] | 0.327
COC(=O)CCc1ccc(OCC(O)CNC(C)C)cc1.Cl (stereo not given) [Esmolol HCl] | 0.799
CC(=O)NC(CC(C)C)C(=O)O (stereo not given) [Acetylleucine] | 0.453
COc1ccc(CN2CCN(C(c3ccc(F)cc3)c3ccc(F)cc3)CC2)c(OC)c1OC.Cl.Cl [Lomerizine 2HCl] | 0.86
CCCCCCCCCCCC(=O)O [Lauric Acid] | 0.925
CC(=O)OC/C=C/c1ccccc1 [Cinnamyl acetate] | 1.25
NC12CC3CC(CC(C3)C1)C2 [Amantadine] | 0.931
NCCC(=O)O [β-Alanine] | 0.454
N[C@H](CO)C(=O)O [(R)-Serine] | 1.11
CC(/C=C1\SC(=S)N(CC(=O)O)C1=O)=C\c1ccccc1 [Epalrestat] | 1
CC(COc1ccccc1)N(CCCl)Cc1ccccc1.Cl (stereo not given) [Phenoxybenzamine HCl] | 0.82
C=C=CCNC(=O)c1ccc(F)cc1 [Diastase] | 0.443
Cc1nnc(NS(=O)(=O)c2ccc(N)cc2)s1 [Sulfamethizole] | 0.679
O=C(O)CCCCCCCCC(=O)O [Sebacic acid] | 0.72
CC1OC1P(=O)(O)O.NC(CO)(CO)CO (stereo not given) [Fosfomycin Tromethamine] | 0.671
COc1ccccc1OCC(O)COC(N)=O (stereo not given) [Methocarbamol] | 1.02
COC1/C=C/OC2(C)Oc3c(C)c(O)c4c(O)c(c(/C=N/N5CCN(C6CCCC6)CC5)c(O)c4c3C2=O)NC(=O)/C(C)=C/C=C/C(C)C(O)C(C)C(O)C(C)C(OC(C)=O)C1C (stereo in doubt) [Rifapentine] | 1.1

Structure (SMILES) | ISRE reporter
OCC(O)C(O)C(O)C(O)CO (stereo not given) [Sorbitol] | 1.03
CC(=O)O.CC(N)C(=O)NCC(=O)NC1CSSCC(C(=O)O)NC(=O)C(CO)NC(=O)C(C(C)O)NC(=O)C(Cc2ccccc2)NC(=O)C(C(C)O)NC(=O)C(CCCCN)NC(=O)C(Cc2c[nH]c3ccccc23)NC(=O)C(Cc2ccccc2)NC(=O)C(Cc2ccccc2)NC(=O)C(CC(N)=O)NC(=O)C(CCCCN)NC1=O (stereo not given) [Somatostatin Acetate] | 0.715
O=c1c(-c2ccc(O)cc2)coc2cc(OC3OC(CO)C(O)C(O)C3O)ccc12 (stereo not given) [Daidzin] | 1.09
C[n+]1cccc(C(=O)O)c1.[Cl-] [Trigonelline Hydrochloride] | 0.52
CCCN(CCc1cccs1)C1CCc2c(O)cccc2C1 (stereo not given) [Rotigotine] | 0.951
CCc1ccc(CCOc2ccc(CC3SC(=O)NC3=O)cc2)nc1.Cl (stereo not given) [Pioglitazone HCl] | 0.81
N#C/C(=C1/SCC(c2ccc(Cl)cc2Cl)S1)n1ccnc1 (stereo not given) [Luliconazole] | 0.92
Cc1cccc(CN2CCN(C(c3ccccc3)c3ccc(Cl)cc3)CC2)c1.Cl.Cl (stereo not given) [Meclizine 2HCl] | 0.553
O=c1ccc2ccc(O)cc2o1 [Umbelliferone] | 0.677
CN(C)C1C(O)=C(C(N)=O)C(=O)C2(O)C(O)=C3C(=O)c4c(O)cccc4C(C)(O)C3C(O)C12.O.O (stereo not given) [Oxytetracycline Dihydrate] | 0.932
CO/N=C(\C(=O)NC1C(=O)N2C(C(=O)[O-])=C(COC(C)=O)CSC12)c1csc(N)n1.[Na+] (stereo not given) [Cefotaxime sodium] | 1.16
Cc1cc(-n2c(=O)[nH]c(=O)n(C)c2=O)ccc1Oc1ccc(SC(F)(F)F)cc1 [Toltrazuril] | 1.02
CCOc1ccc2c(c1)C(C)=CC(C)(C)N2 [Ethoxyquin] | 0.946
O=C1c2cccc(O)c2C(=O)c2c(O)cccc21 [Danthron] | 1.56
O=C1OC2(c3ccc(O)cc3Oc3cc(O)ccc32)c2ccccc21 [Fluorescein] | 0.562
CCCCc1nc(C)c(CC(=S)N(C)C)c(=O)n1Cc1ccc(-c2ccccc2-c2nnn[nH]2)cc1 [Fimasartan] | 0.819
O=C(NCCN1CCOCC1)c1ccc(Cl)cc1 | 0.838
